Data taken from US20240076343A1 (CEPHALON, published 2024).

What was measured:
[1] = target: T1, recombinant human CD25 extracellular domain, C-terminal poly-histidine tagged (human, UniProt P01589 22-240); test: BLI (Octet)
T1 construct: also called CD25/IL-2Rα; IL-2Rα
T1 sequence: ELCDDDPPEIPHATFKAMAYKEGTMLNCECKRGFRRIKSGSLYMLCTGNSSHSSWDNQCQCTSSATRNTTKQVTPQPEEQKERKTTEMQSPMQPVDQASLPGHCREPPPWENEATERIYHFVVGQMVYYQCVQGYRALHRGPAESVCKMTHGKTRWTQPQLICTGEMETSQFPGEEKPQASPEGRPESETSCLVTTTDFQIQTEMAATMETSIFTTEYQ

[2] = target: T2, recombinant human CD122 extracellular domain, C-terminal poly-histidine tagged (human, UniProt P14784 27-240); test: BLI (Octet)
T2 construct: also called CD122/IL-2Rβ; IL-2Rβ
T2 sequence: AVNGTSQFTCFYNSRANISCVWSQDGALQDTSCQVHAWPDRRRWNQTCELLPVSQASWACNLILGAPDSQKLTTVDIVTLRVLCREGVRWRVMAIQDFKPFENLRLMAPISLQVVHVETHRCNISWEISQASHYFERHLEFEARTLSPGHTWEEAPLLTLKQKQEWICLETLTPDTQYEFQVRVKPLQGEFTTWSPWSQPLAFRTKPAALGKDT

[3] = target: T3, intermediate-affinity hIL-2 receptor complex (IL-2Rβγ) on TF1+IL-2Rβ cells (human, UniProt P14784 27-551; P31785 23-369); test: cell-based or functional assay
T3 sequence 1: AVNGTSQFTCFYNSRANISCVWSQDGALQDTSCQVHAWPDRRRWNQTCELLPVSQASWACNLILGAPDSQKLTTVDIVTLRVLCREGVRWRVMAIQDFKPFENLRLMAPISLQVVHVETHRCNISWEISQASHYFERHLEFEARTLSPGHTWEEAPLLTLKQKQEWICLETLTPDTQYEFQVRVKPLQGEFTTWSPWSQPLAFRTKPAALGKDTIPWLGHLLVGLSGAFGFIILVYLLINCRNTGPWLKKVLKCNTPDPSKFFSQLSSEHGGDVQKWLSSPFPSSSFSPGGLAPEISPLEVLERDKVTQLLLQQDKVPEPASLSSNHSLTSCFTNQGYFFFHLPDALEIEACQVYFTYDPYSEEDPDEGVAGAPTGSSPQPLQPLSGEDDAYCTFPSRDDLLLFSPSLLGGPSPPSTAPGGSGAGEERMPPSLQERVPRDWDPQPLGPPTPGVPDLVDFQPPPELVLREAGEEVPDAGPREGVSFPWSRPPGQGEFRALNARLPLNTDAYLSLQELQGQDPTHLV
T3 sequence 2: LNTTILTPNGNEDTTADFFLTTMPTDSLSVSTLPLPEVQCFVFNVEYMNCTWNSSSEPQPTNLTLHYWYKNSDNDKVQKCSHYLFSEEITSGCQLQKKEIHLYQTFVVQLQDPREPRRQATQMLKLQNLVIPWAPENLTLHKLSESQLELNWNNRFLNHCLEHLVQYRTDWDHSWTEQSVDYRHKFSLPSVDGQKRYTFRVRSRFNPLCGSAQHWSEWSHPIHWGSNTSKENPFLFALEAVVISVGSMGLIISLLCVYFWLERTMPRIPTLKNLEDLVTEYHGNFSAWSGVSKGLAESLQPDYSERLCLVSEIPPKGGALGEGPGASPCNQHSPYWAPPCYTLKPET

[4] = target: T4, intermediate affinity hIL-2 receptor (hIL-2Rβγ) on TF1+IL-2Rβ cells (human, UniProt P14784 27-551; P31785 23-369); test: cell-based or functional assay
T4 sequence 1: T3 sequence 1
T4 sequence 2: T3 sequence 2

[5] = target: T5, high-affinity hIL-2 receptor (IL-2Rαβγ) (human, UniProt P01589 22-272; P14784 27-551; P31785 23-369); test: cell-based or functional assay
T5 sequence 1: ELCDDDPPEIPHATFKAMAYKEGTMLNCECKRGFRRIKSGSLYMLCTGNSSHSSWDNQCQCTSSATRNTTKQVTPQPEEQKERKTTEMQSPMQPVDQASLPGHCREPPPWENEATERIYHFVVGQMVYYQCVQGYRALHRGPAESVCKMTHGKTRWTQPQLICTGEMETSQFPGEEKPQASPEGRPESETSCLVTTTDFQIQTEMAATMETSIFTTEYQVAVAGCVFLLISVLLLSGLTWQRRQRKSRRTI
T5 sequence 2: T3 sequence 1
T5 sequence 3: T3 sequence 2

[6] = target: T6, high-affinity hIL-2 receptor (IL-2Rαβγ) on NK-92 cells (human, UniProt P01589 22-272; P14784 27-551; P31785 23-369); test: cell-based or functional assay
T6 sequence 1: T5 sequence 1
T6 sequence 2: T3 sequence 1
T6 sequence 3: T3 sequence 2

[7] = target: T7, intermediate affinity hIL-2 receptor complex (IL-2Rβγ) on TF1+IL-2Rβ cells (human, UniProt P14784 27-551; P31785 23-369); test: cell-based or functional assay
T7 sequence 1: T3 sequence 1
T7 sequence 2: T3 sequence 2

[8] = target: T8, high-affinity hIL-2 receptor (IL-2Rαβγ) on NK-92 cells (human, UniProt P01589 22-272; P14784 27-551; P31785 23-369); test: cell-based or functional assay; remark: listed apart in the source
T8 sequence 1: T5 sequence 1
T8 sequence 2: T3 sequence 1
T8 sequence 3: T3 sequence 2

[9] = target: T3, intermediate-affinity hIL-2 receptor …; test: cell-based or functional assay; remark: listed apart in the source

B1: 1H3-hIgG1-L6-hIL-2 (R38D/E61R) (other)
heavy: EVQLVESGGGLVQPGRSLKLSCAVSGFTFSDYAMAWVRQAPKKGLEWVATISYDGSRTYYRDSVKGRFTISRDNAKITLYLQMDSLRSEDTATYYCARHGSGYFDYWGQGVMVTVSS[not shown - about 450 residues with a human IgG1 Fc and changes]
light: DTVLTQSPALAVSPGERVTISCRASESVRTGVHWYQQKPGQQPKLLIYGASNLESGVPARFSGSGSGTDFTLTIDPVEADDTATYFCQQSWNDPFTFGSGTKLEIKRTVAAPSVFIFPPSDEQLKSGTASVVCLLNNFYPREAKVQWKVDNALQSGNSQESVTEQDSKDSTYSLSSTLTLSKADYEKHKVYACEVTHQGLSSPVTKSFNRGEC
notes: Built as m13
[1]
  binding result: no binding (tested: 300 nM)
[2]
  Kd: 12.9 nM
  koff: 0.00473 s⁻¹
  kon: 368000 M⁻¹ s⁻¹
[3]
  Fold change from hIL-2 (TF1 + IL-2Rβ), fixed concentration pSTAT5 screen: 1 fold

B2: 1H3-hIgG1-L6-hIL-2 (R38D/E61R/K43E) (other)
heavy: EVQLVESGGGLVQPGRSLKLSCAVSGFTFSDYAMAWVRQAPKKGLEWVATISYDGSRTYYRDSVKGRFTISRDNAKITLYLQMDSLRSEDTATYYCARHGSGYFDYWGQGVMVTVSS[not shown - human IgG1 constant region]SGGGGSAPTSSSTKKTQLQLEHLLLDLQMILNGINNYKNPKLTDMLTFEFYMPKKATELKHLQCLERELKPLEEVLNLAQSKNFHLRPRDLISNINVIVLELKGSETTFMCEYADETATIVEFLNRWITFCQSIISTLT
light: B1 light
notes: Built as m13
[1]
  binding result: no binding (tested: 300 nM)
[2]
  Kd: 7.47 nM
  koff: 0.00338 s⁻¹
  kon: 452000 M⁻¹ s⁻¹
[3]
  Fold change from hIL-2 (TF1 + IL-2Rβ), fixed concentration pSTAT5 screen: 1 fold

B3: 1H3-hIgG1-L6-hIL-2 (D20A/R38E) (other)
heavy: EVQLVESGGGLVQPGRSLKLSCAVSGFTFSDYAMAWVRQAPKKGLEWVATISYDGSRTYYRDSVKGRFTISRDNAKITLYLQMDSLRSEDTATYYCARHGSGYFDYWGQGVMVTVSS[not shown - about 450 residues with a human IgG1 Fc and changes]
light: B1 light
[4]
  Fold change from rhIL-2 (TF1 + IL-2Rβ): > 10000 fold

B4: 1H3-hIgG1-L6-hIL-2 (D20A/R38E/C125A) (other)
heavy: EVQLVESGGGLVQPGRSLKLSCAVSGFTFSDYAMAWVRQAPKKGLEWVATISYDGSRTYYRDSVKGRFTISRDNAKITLYLQMDSLRSEDTATYYCARHGSGYFDYWGQGVMVTVSS[not shown - human IgG1 constant region]SGGGGSAPTSSSTKKTQLQLEHLLLALQMILNGINNYKNPKLTEMLTFKFYMPKKATELKHLQCLEEELKPLEEVLNLAQSKNFHLRPRDLISNINVIVLELKGSETTFMCEYADETATIVEFLNRWITFAQSIISTLT
light: B1 light
[5]
  Agonistic Activity (NK-92), pSTAT5 titration: 50%
  Fold change from rhIL-2 (NK-92), pSTAT5 titration: > 10000 fold

B5: 1H3-hIgG1-L6-hIL-2 (T3A/D20A/R38E/C125A) (other)
heavy: EVQLVESGGGLVQPGRSLKLSCAVSGFTFSDYAMAWVRQAPKKGLEWVATISYDGSRTYYRDSVKGRFTISRDNAKITLYLQMDSLRSEDTATYYCARHGSGYFDYWGQGVMVTVSS[not shown - human IgG1 constant region]SGGGGSAPASSSTKKTQLQLEHLLLALQMILNGINNYKNPKLTEMLTFKFYMPKKATELKHLQCLEEELKPLEEVLNLAQSKNFHLRPRDLISNINVIVLELKGSETTFMCEYADETATIVEFLNRWITFAQSIISTLT
light: B1 light
[5]
  Agonistic Activity (NK-92), pSTAT5 titration: 90%
  Fold change from rhIL-2 (NK-92), pSTAT5 titration: > 10000 fold

B6: 1H3-hIgG1-L6-hIL-2 (D20A/R38E) (other)
heavy: EVQLVESGGGLVQPGRSLKLSCAVSGFTFSDYAMAWVRQAPKKGLEWVATISYDGSRTYYRDSVKGRFTISRDNAKITLYLQMDSLRSEDTATYYCARHGSGYFDYWGQGVMVTVSS[not shown - about 450 residues with a human IgG1 Fc and changes]
light: B1 light
[6]
  Fold change from hIL-2 (NK-92): 15 fold
[7]
  Fold change from hIL-2 (TF1 + IL-2Rβ): 3 fold

B7: 1H3-hIgG1-L6-hIL-2 (D20A/R38E/C125A) (other)
heavy: B4 heavy
light: B1 light
[6]
  Fold change from hIL-2 (NK-92): 16 fold
[7]
  Fold change from hIL-2 (TF1 + IL-2Rβ): 3 fold

B8: 1H3-hIgG1-L6-hIL-2 (T3A/D20A/R38E) (other)
heavy: EVQLVESGGGLVQPGRSLKLSCAVSGFTFSDYAMAWVRQAPKKGLEWVATISYDGSRTYYRDSVKGRFTISRDNAKITLYLQMDSLRSEDTATYYCARHGSGYFDYWGQGVMVTVSS[not shown - human IgG1 constant region]SGGGGSAPASSSTKKTQLQLEHLLLALQMILNGINNYKNPKLTEMLTFKFYMPKKATELKHLQCLEEELKPLEEVLNLAQSKNFHLRPRDLISNINVIVLELKGSETTFMCEYADETATIVEFLNRWITFCQSIISTLT
light: B1 light
[6]
  Fold change from hIL-2 (NK-92): 18 fold
[7]
  Fold change from hIL-2 (TF1 + IL-2Rβ): 2 fold

B9: 1H3-hIgG1-L6-hIL-2 (T3A/D20A/R38E/C125A) (other)
heavy: B5 heavy
light: B1 light
[6]
  Fold change from hIL-2 (NK-92): 18 fold
[7]
  Fold change from hIL-2 (TF1 + IL-2Rβ): 3 fold

B10: hCD25-L20-hIL-2 Cterm light chain df (other)
heavy: EVQLVESGGGLVQPGRSLKLSCAVSGFTFSDYAMAWVRQAPKKGLEWVATISYDGSRTYYRDSVKGRFTISRDNAKITLYLQMDSLRSEDTATYYCARHGSGYFDYWGQGVMVTVSS[not shown - human IgG1 constant region]
light: DTVLTQSPALAVSPGERVTISCRASESVRTGVHWYQQKPGQQPKLLIYGASNLESGVPARFSGSGSGTDFTLTIDPVEADDTATYFCQQSWNDPFTFGSGTKLEIKRTVAAPSVFIFPPSDEQLKSGTASVVCLLNNFYPREAKVQWKVDNALQSGNSQESVTEQDSKDSTYSLSSTLTLSKADYEKHKVYACEVTHQGLSSPVTKSFNRGECELCDDDPPEIPHATFKAMAYKEGTMLNCECKRGFRRIKSGSLYMLCTGNSSHSSWDNQCQCTSSATRNTTKQVTPQPEEQKERKTTEMQSPMQPVDQASLPGHCREPPPWENEATERIYHFVVGQMVYYQCVQGYRALHRGPAESVCKMTHGKTRWTQPQLICTSGGGGSGGGGSGGGGSGGGS[not shown - about 150 residues]
[8]
  Fold change from rhIL-2 (NK-92): 45 fold
[9]
  Fold change from rhIL-2 (TF1 + IL-2Rβ): ~174 fold

B11: hCD25-L20-hIL-2 Cterm light chain L6 fusion (other)
heavy: B10 heavy
light: DTVLTQSPALAVSPGERVTISCRASESVRTGVHWYQQKPGQQPKLLIYGASNLESGVPARFSGSGSGTDFTLTIDPVEADDTATYFCQQSWNDPFTFGSGTKLEIKRTVAAPSVFIFPPSDEQLKSGTASVVCLLNNFYPREAKVQWKVDNALQSGNSQESVTEQDSKDSTYSLSSTLTLSKADYEKHKVYACEVTHQGLSSPVTKSFNRGECSGGGGSELCDDDPPEIPHATFKAMAYKEGTMLNCECKRGFRRIKSGSLYMLCTGNSSHSSWDNQCQCTSSATRNTTKQVTPQPEEQKERKTTEMQSPMQPVDQASLPGHCREPPPWENEATERIYHFVVGQMVYYQCVQGYRALHRGPAESVCKMTHGKTRWTQPQLICTSGGGGSGGGGSGGGGSGGGS[not shown - about 150 residues]
[8]
  Fold change from rhIL-2 (NK-92): 138 fold
[9]
  Fold change from rhIL-2 (TF1 + IL-2Rβ): ~247 fold
